For the test, the system named is NCI-H322M lung. Briefly: inhibition of tumour cell growth, NCI panel, 48 h.

SMILES strings stand for the structures. Values joined by “and” are separate entries in the source; they are usually repeats but may differ in a detail not shown here. Equal values may be shown once.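 Test compounds were applied to cells in 96-well plates for 48 hours at 5 doses. The concentration for 50% growth inhibition is given as GI50. TGI is the concentration that stops growth completely.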

Regarding `COc1ccc(C(=O)CC2=Nc3nnc(CCCCCCCc4nnc5n4C(=O)C(CC(=O)c4ccc(OC)cc4)=N5)n3C2=O)cc1`, the TGI is > 100 µM.

As for `COc1cc(C2C3=C(CCCC3=O)N(c3ccc(C)cc3)C3=C2C(=O)CCC3)c([N+](=O)[O-])cc1OC`, the TGI is > 100 µM.

In the case of `C/C=C(\C)C(=O)O[C@@H]1CC(C)(C)CC2C3=CCC4[C@]56CC[C@](O)(OC5)C(C)(C)C6CC[C@@]4(C)C3(C)CC[C@]21C(=O)O` (some centres not stated), the TGI was > 100 µM.

Consider `COc1cccc2cc(C(=O)Nc3ccccc3)c(=N)oc12`, for which the TGI is > 100 µM.

In the case of `Nc1nc(SCc2ccccc2Cl)cc(C(=O)O)n1`, the TGI was > 100 µM.

For `CCOC(=O)CCN1C(=O)C(=O)N(c2ccc(OC)cc2)C1=S`, the TGI was > 100 µM.

As for `CO[C@H]1C[C@](C)(O)Cc2cc3c(c(O)c21)C(=O)c1c(O)cc2c(c1C3=O)O[C@@H]1O[C@@]2(C)[C@H](O)[C@@H](N(C)C)[C@@H]1O`, the GI50 is 2.37 µM; the TGI was 6.42 µM and 14.8 µM.

Compound `Cc1cc(Nc2ccc(NS(C)(=O)=O)cc2)c2c(ccc3nccc32)[nH]1` displayed a TGI of 53 µM.

Regarding `Cc1c(C)c(C)c(-n2c(=O)n(C)c(=O)n2-c2cc(C(C)(C)C)cc(C(C)(C)C)c2O)c(C)c1C`, the TGI worked out at 27.5 µM.

In the case of `CCOC(=O)C(=CNC(=S)N=Nc1c(O)[nH]c2ccccc12)C(=O)OCC`, the TGI was > 100 µM.

For `CC(=O)O[C@H]1C(=O)[C@@]2(C)[C@H]([C@H](OC(=O)c3ccccc3)[C@]3(O)C[C@H](OC(=O)[C@H](O)[C@@H](NC(=O)c4ccccc4)c4cccc(N(C)C)c4)C(C)=C1C3(C)C)[C@]1(OC(C)=O)CO[C@@H]1C[C@@H]2O`, the TGI was > 75 µM.

Regarding `CC1SC2(CCCCC2)N(NC(=O)CSc2nc3ccc(Cl)cc3c(=O)n2-c2ccccc2)C1=O` (configuration not stated), the TGI was > 100 µM.

With `CNC(=O)SCC(NC(=O)CCC(N)C(=O)O)C(=O)NCC(=O)O` (configuration not stated), the TGI was > 100 µM.

In the case of `CC(=O)C(C(C)=O)[C@@H]1OC(C)(C)O[C@@H]1[C@H]1COC(C)(C)O1`, the TGI was > 100 µM.

In turn, `COc1cc2cc(C(=O)N3CC(CCl)c4ccc(N(C)C)cc43)[nH]c2c(OC)c1OC` (configuration not stated) showed a TGI of 0.529 µM.

For the compound `CCOc1ccc(C(C)c2cc3c(cc2OC)OCO3)cc1` (configuration not stated), the TGI is > 100 µM.

`Clc1ccc2nc(CI)c(CI)nc2c1`: the GI50 was > 45.6 µM and the TGI is > 77.3 µM.

For the compound `Cn1nc(C(F)(F)F)c(-c2cc(C(F)(F)F)cc(C(F)(F)F)c2)c1-c1ccc(OCc2ccc(Cl)cc2)cc1O`, the GI50 was 2.6 µM and the TGI was 10.6 µM.

On to `O=C(CI)Nc1ccc(O)c2ccccc12`, for which the GI50 is 7.08 µM and the TGI came to 21.3 µM.

Regarding `c1ccc(Nc2nn3c(CCCCCCCCc4nnc5sc(Nc6ccccc6)nn45)nnc3s2)cc1`, the TGI was > 100 µM.

On to `CC([C@H]1CC=C2C3CCC4=C[C@@H](N(C)C)CC[C@]4(C)C3CC[C@@]21C)N(C)C` (some centres not stated), for which the GI50 was 3.05 µM and the TGI stood at 12.4 µM.

For `C=C1SC(=Nc2ccccc2Cl)N(C(=O)c2sc3ccccc3c2Cl)C12CCCCC2`, the GI50 was 9.34 µM and the TGI was > 100 µM.

Take `O=c1oc2cc(OC/C(=N/O)c3ccc(F)cc3)ccc2c2ccccc12`: the GI50 was 17.5 µM and the TGI was 39 µM.

In the case of `CN1Cc2cc(O)c(O)cc2C(O)C1` (configuration not stated), the TGI is > 100 µM.

Take `COc1ccc2oc(-c3ccc(OC)c(OC)c3OC)cc(=O)c2c1`: the TGI was > 100 µM.

As to `Cc1cccc(C)c1N1C(=O)C(=O)C(c2nc3ccccc3s2)/C(=N/NC(=O)c2ccccc2O)C1=O` (configuration not stated), the TGI is > 100 µM.

Consider `Cc1nc(N)nc(N)c1CCCc1ccccc1`, for which the TGI was > 100 µM.

The compound `CN(C)CCNC(=O)c1cccc2nc3c(C(=O)NCCN(C)C)cccc3nc12` returned a TGI of 4.14 µM.

As for `C[C@]12CC[C@H]3[C@@H](CC4SC(N)=NC45C/C(=N/NC(N)=O)CC[C@]35C)[C@@H]1CCC2=O` (some centres not stated), the GI50 was 1.77 µM and the TGI stood at 3.55 µM.

Turning to `CCOC(=O)C1=C(C)N(NC(N)=O)C2(N)N(NC(N)=O)C(C)=C(C(=O)OCC)C12C(=O)OCC` (configuration not stated), the TGI was > 100 µM.

In turn, `NCCNC(=O)c1cccc2cc3ccccc3nc12` had a TGI of 11.6 µM.

On to `O=C1C=Cc2c1ccc1ccccc21`, for which the GI50 was 30.5 µM and the TGI was > 100 µM.

For the compound `ClCc1ccccc1Cn1cnc2c(Cl)ncnc21`, the GI50 was 3.94 µM and the TGI stood at 13.9 µM.

Turning to `CC1(C)C2CCC1C(=O)[C@@]1(C=CC(=O)CC1)C2` (some centres not stated), the TGI is > 100 µM.

On to `Cc1ccc2nc3cc(C)c(=O)cc-3sc2c1`, for which the TGI is > 100 µM.

For `C[C@H]1CNC(=O)c2cnn3ccc(nc23)N[C@H](C)c2cc(F)ccc2O1`, the GI50 is 1.5 µM and the TGI came to 14.5 µM.

On to `CCCCc1ccc(Nc2nc(Cl)c3ccn(C4CC(Oc5ccc(C)cc5)C(COc5ccc(C)cc5)O4)c3n2)cc1` (configuration not stated), for which the TGI was > 46.4 µM.

On to `O[C@@H]1CCC[C@@H]2NC[C@@H](c3ccc4c(c3)OCO4)[C@H]12`, for which the TGI was > 100 µM.

Take `COc1ccc2c(c1)NC1(CCN(CCCC(=O)c3ccc(F)cc3)CC1)N=N2`: the TGI was > 100 µM.

`CC1(C)OC(=O)C(C#N)=C1C[n+]1ccccc1`: the TGI is > 10 µM.

With `O=C(c1ccco1)c1c(C(F)(F)F)n([O-])c2cc(C(F)(F)F)ccc2[n+]1=O`, the GI50 was 1.97 µM and the TGI turned out to be 3.83 µM.

On to `CCOC(=O)C12C(C(=O)OC)=C(C)N(NC(=O)Nc3ccccc3)C1(N)N(NC(=O)Nc1ccccc1)C(C)=C2C(=O)OC` (configuration not stated), for which the TGI was > 96.1 µM.

Take `O=C(Nc1ccc(F)cc1)Nc1ccc(Br)c(C(F)(F)F)c1`: the GI50 was 2.87 µM and the TGI was 11.5 µM.

As for `Cc1ccc(S(=O)(=O)N/N=C2\CC3CC4CCC2C4C3)cc1` (configuration not stated), the TGI is > 100 µM.

On to `O=C1C(=O)c2ccccc2C(O)=C1CCCc1ccc(C2CCCCC2)cc1`, for which the GI50 is 11.1 µM and the TGI was found to be 40.5 µM.

On to `O=c1[nH]c2nccn2c2c1SCCN2`, for which the TGI is > 100 µM.

For `NC(=O)CC(N)C(=O)NC(Cc1ccccc1)C(=O)NC(Cc1ccccc1)NC(=O)C(Cc1c[nH]c2ccccc12)C(=O)O` (configuration not stated), the TGI was > 100 µM.

`COc1cc2c(cc1Oc1c(Oc3c(O)c(OC)cc4c3C(CC(C)C)N(C)CC4)c(OC)cc3c1C(CC(C)C)N(C)CC3)C(CC(C)C)N(C)CC2` (configuration not stated) yielded a TGI of 11.1 µM.

As for `COC(=O)C(CC(=O)Nc1ccc(Cl)c(Cl)c1)C(=O)C(=O)Nc1ccc(Cl)c(Cl)c1` (configuration not stated), the TGI is > 100 µM.

`NC(=O)c1cccc(OCC(O)CO)c1` (configuration not stated): the TGI was > 100 µM.

As to `Cc1cc(C)c(C(=O)O)c(SSc2cc(C)cc(C)c2C(=O)O)c1`, the TGI was > 100 µM.

Take `S=c1nc(N/N=C/c2cccs2)c2cn[nH]c2[nH]1`: the TGI was determined as 16.7 µM.

In the case of `CCN(CC)CC1CN=C(N)O1` (configuration not stated), the TGI is > 100 µM.

Turning to `CC(C)=CC(=O)N[C@H]1CC[C@]2(C)C3CC[C@]4(C)C(C(C)N(C)C)=CCC4C3CCC2[C@H]1O` (some centres not stated), the GI50 was 3.62 µM and the TGI stood at 14.3 µM.

Consider `CC(C)C(=O)/C=C/S/C=C/C(=O)C(C)C`, for which the TGI was > 100 µM.

On to `C#CC1(O)CCC2[C@@H]3CCc4cc(Oc5nc(F)nc(-c6c7ccccc7c(SCC)n6CCC)n5)ccc4C3CC[C@@]21C` (some centres not stated), for which the TGI was > 100 µM.

For the compound `C=C1C(=O)O[C@H]2[C@H]1CC/C(COC(=O)CCCc1c[nH]c3ccccc13)=C\CC[C@@]1(C)O[C@@H]21`, the GI50 was 13.8 µM and the TGI amounted to 27.8 µM.

Compound `N#Cc1cc(Sc2ccc(N)c(C#N)c2)ccc1N` yielded a TGI of 58.3 µM.

`O=CN1N=C(c2cccc(Nc3ccnc4cc(Cl)ccc34)c2)CC1c1ccccc1` (configuration not stated): the GI50 is 0.626 µM and the TGI was > 100 µM.

Consider `Cc1cc2c(c(S(=O)(=O)c3ccccc3[N+](=O)[O-])c1)NCCC2`, for which the TGI was > 100 µM.

As for `CCCCCC[C@@H](C)NC(=O)c1ccc(Nc2nc3ccccc3c3occc23)cc1`, the GI50 is 21.9 µM and the TGI was found to be 76.1 µM.

Take `CC(C(=O)c1ccccc1)C1(O)C(=O)Nc2ccc(Cl)cc21` (configuration not stated): the TGI was > 100 µM.

For the compound `COC(=O)[C@]1(c2ccc(N(C)C)cc2OC)C[C@@H]2CCCN(CCc3c1[nH]c1ccccc31)C2`, the TGI is > 61.8 µM.

`COC(=O)[C@]1(c2cc3ccccc3[nH]2)CC2CN(C(=O)OCc3ccccc3)C1CC2=O` (some centres not stated) yielded a TGI of 77.3 µM.

On to `CCCCCCCCP(=O)(O)OP(=O)(O)OCC1OC(n2ccc(N)nc2=O)C(O)C1O` (configuration not stated), for which the TGI was > 100 µM.

Consider `COc1cc(OC)c(OC)cc1/C=C/c1cnnc2ccccc12`, for which the TGI is > 10 µM.

In the case of `C=C(C)[C@H]1C2=CC(C)=C(O2)[C@@H](O)[C@H](C(=C)C)CCC2=C[C@H]1OC2=O`, the TGI is > 100 µM.

For the compound `COC(=O)C(Cc1ccc(N(C)C)cc1)(NC(=O)c1ccccc1)P(=O)(OC)OC` (configuration not stated), the TGI was > 100 µM.

Take `O=C(Nc1ccccc1Cl)c1ccc([N+](=O)[O-])cc1`: the TGI was > 100 µM.

The compound `Cc1[nH]c2ccccc2c1/C=N/NC(=O)c1cccc(I)c1` had a TGI of 70.2 µM.

`O=C1CSC(c2ccc([N+](=O)[O-])cc2)N1c1ccc(-c2ccc(-n3c(-c4ccccc4)nc4ccccc4c3=O)cc2)cc1` (configuration not stated): the TGI was > 100 µM.

Consider `C/C(CC(=O)Nc1ccccc1C)=N/NS(=O)(=O)c1ccc(C)cc1`, for which the TGI is > 100 µM.

In the case of `Cc1cc2n[n+]3[n-]cc(-c4ccccc4)n3c2cc1[N+](=O)[O-]`, the TGI was > 100 µM.

For the compound `CC(C(=O)c1ccncc1)c1ccccn1` (configuration not stated), the TGI was > 100 µM.

As for `COc1ccc(-c2ncn(C[Si](C)(C)C)c2-c2ccc(OC)cc2)cc1`, the TGI is 18.6 µM.

On to `Nn1c(=O)[nH]c2ncn(Cc3ccccc3)c2c1=O`, for which the TGI was > 100 µM.

For the compound `O=C(C/C(=N/O)C(F)(F)F)c1cccs1`, the TGI was > 100 µM.

With `CCOC(=O)C(Cc1ccccc1)NC(=O)c1[nH]cnc1/N=N/N(C)C` (configuration not stated), the TGI is > 100 µM.

Consider `COc1c(Br)cc2ccccc2c1-c1c(OC)c(Br)cc2ccccc12`, for which the TGI was > 100 µM.

As for `Cc1c(N)nc(C(CC(N)=O)NCC(N)C(N)=O)nc1C(=O)NC(C(=O)NC(C)C(O)C(C)C(=O)NC(C(=O)NCCc1nc(-c2nc(C(=O)NCCCNC(C)c3ccccc3)cs2)cs1)C(C)O)C(OC1OC(CO)C(O)C(O)C1OC1OC(CO)C(O)C(OC(N)=O)C1O)c1cnc[nH]1` (configuration not stated), the GI50 was > 100 µM; the TGI was 50 µM and > 100 µM.

Take `CC(C)c1cccc(O)c(=O)c1`: the GI50 was 38.4 µg/mL; the TGI is > 75 µg/mL and > 100 µM.

In turn, `COC1=CC(=O)C=C(OC)C1=O` came in with a TGI of 25.6 µM.

The record behind these values is PubChem BioAssay (NCI).
